{
  "source": "PubChem BioAssay (NCI)",
  "tested_on": "NCI-H322M lung",
  "assay": "DTP human tumour cell line panel, 48 h",
  "note": "Where “and” joins values, the source holds several entries; their conditions need not be identical. Equal entries are not always repeated.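 Test compounds were applied to cells in 96-well plates for 48 hours at 5 doses. GI50: concentration for 50% inhibition of growth. TGI: concentration producing complete growth inhibition.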",
  "data": [
    {"smiles": "CC(C)C[C@H](NC(=O)[C@@H]1CCCCCCCCCCC(=O)N[C@@H](CC(=O)N2CCC[C@@H]2C2CCCC2)C(=O)N1)B(O)O", "values": [
      {"measurement": "GI50", "result": "0.0145 µM and 0.0168 µM"},
      {"measurement": "TGI", "result": "0.0369 µM and 0.115 µM"}
    ]},
    {"smiles": "O=C1Nc2cc(Cl)ccc2/C1=C/c1ccc(OCc2ccc(Br)cc2F)cc1", "values": [
      {"measurement": "GI50", "result": 4.43, "unit": "µM"},
      {"measurement": "TGI", "result": 19.3, "unit": "µM"}
    ]},
    {"smiles": "Brc1ccc(N/N=C/c2c[nH]c3ccccc23)nc1", "values": [
      {"measurement": "GI50", "result": "> 100", "unit": "µM"},
      {"measurement": "TGI", "result": "> 100", "unit": "µM"}
    ]},
    {"smiles": "Cc1cccc(-c2nc(Nc3cccc(S(N)(=O)=O)c3)c3ccccc3n2)c1", "values": [
      {"measurement": "GI50", "result": "> 100", "unit": "µM"},
      {"measurement": "TGI", "result": "> 100", "unit": "µM"}
    ]},
    {"smiles": "O=C(NO)c1ccc(CN2CCN(c3nc(-c4ccccc4)c4ccccc4n3)CC2)cc1", "values": [
      {"measurement": "GI50", "result": 6.73, "unit": "µM"},
      {"measurement": "TGI", "result": "> 23.7", "unit": "µM"}
    ]}
  ]
}
